Measured values from paper PMC5762908 (Scientific Reports, 2018).

Legend:
[1] = tested on: HL-60 (human promyelocytic leukemia)
HCT116 cells [2] = settings: for DNA content (%) G0/G1 / DNA content (%) G2/M / DNA content (%) S / DNA content (%) Sub-G0/G1: HCT116 cells
HCT116 cells [3] = settings: HCT116, trypan blue
Description: TBE assay was used to confime the cytotoxic effect of the complex tested. The number of viable cells and non-viable cells (take up trypan blue) were counted. Briefly, 90 μL was removed from the cell suspension and 10 μL of trypan blue (0.4%) was added. Cell counting was performed using a light microscope with a hemocytometer filled with an aliquot of the homogenized cell suspension.

[4] = tested on: HepG2 (human hepatocellular carcinoma)
[5] = tested on: HCT116 (human colon carcinoma)
HCT116 cells [6] = experiment: Mitochondrial transmembrane potential, rhodamine 123, flow cytometry; assay type: cell-based, human; settings: HCT116, rhodamine 123, 24 h; 5-FU at 4 μM
[7] = tested on: HSC-3 (human oral squamous cell carcinoma)
[8] = tested on: caspase-3 in HCT116 cells; experiment: Caspase-3 activation assay, colorimetric, DEVD-pNA substrate; assay type: cell-based, human; settings: HCT116, 48 h; 5-FU at 4 μM
HCT116 cells [9] = experiment: Annexin V-FITC/PI staining assay, flow cytometry; assay type: cell-based, human
Description: For apoptosis detection, we used the FITC Annexin V Apoptosis Detection Kit I (BD Biosciences), and the analysis was performed according to the manufacturer’s instructions. The cell fluorescence was determined by flow cytometry as described above. The protection assays using the caspase-3 inhibitor (Z-DEVD-FMK, BD Biosciences) and the antioxidant NAC (Sigma-Aldrich Co.) were performed. In brief, the cells were pre-treated for 2 h with 50 µM Z-DEVD-FMK and for 1 h with 5 mM NAC, followed by incubation with 4 µM of the complex for 48 h. The cells were then trypsinized and the FITC Annexin V Apoptosis Detection assay was conducted as described above.

[10] = tested on: K-562 (human chronic myelogenous leukemia)
[11] = tested on: MCF7 (human breast carcinoma)
[12] = tested on: SCC-9 (human oral squamous cell carcinoma)
HCT116 cells [13] = experiment: Cellular reactive oxygen species levels, DCF-DA, flow cytometry; assay type: cell-based, human; settings: 1 or 3 h incubation, data not shown
Description: The levels of ROS were measured according to previously described[31] using DCF-DA (Sigma-Aldrich Co.). In brief, cells were treated with the complex for 1 and 3 h. Then, the cells were collected, washed with saline and re-suspended in FACS tubes with saline containing 5 μM DCF-DA for 30 min. Finally, the cells were washed with saline and the cell fluorescence was determined by flow cytometry, as described above.

## [Ru(5-FU)(PPh3)2(bipy)]PF6 [RU/5-FU]
[1]; HL-60, IC50 compared with 5-FU
  more potent than 5-FU (fold): 5 fold
[1]; SI = IC50[MRC-5]/IC50[HL-60]
  Selectivity index (SI): 3.7
[1]; SI = IC50[PBMC]/IC50[HL-60]
  Selectivity index (SI): 2.2
[1]; read-out: IC50 in µM, HL-60, alamar blue assay, 72 h incubation, 2D culture
  IC50: 2.6 µM
HCT116 cells [2]
  Cell cycle phase accumulation / arrest, in words: No accumulation of cells in any phase of the cell cycle
  Internucleosomal DNA fragmentation (sub-G0/G1), in words: significant increase
HCT116 cells [2]; 24 h incubation, 1 µM
  DNA content (%) G0/G1: 43.6 ± 2.9%
  DNA content (%) G2/M: 32.1 ± 1.7%
  DNA content (%) S: 8.8 ± 2.3%
  DNA content (%) Sub-G0/G1: 8.8 ± 1.8%
HCT116 cells [2]; 24 h incubation, 2 µM
  DNA content (%) G0/G1: 35.3 ± 2.0%
  DNA content (%) G2/M: 28.0 ± 3.0%
  DNA content (%) S: 14.5 ± 2.7%
  DNA content (%) Sub-G0/G1: 15.4 ± 3.2%
HCT116 cells [2]; 24 h incubation, 4 µM
  DNA content (%) G0/G1: 19.9 ± 3.6 %
  DNA content (%) G2/M: 27.0 ± 2.5%
  DNA content (%) S: 15.1 ± 2.3%
  DNA content (%) Sub-G0/G1: 25.9 ± 5.1 %
HCT116 cells [2]; 48 h incubation, 1 µM
  DNA content (%) G0/G1: 34.5 ± 2.9%
  DNA content (%) G2/M: 18.8 ± 2.4%
  DNA content (%) S: 14.1 ± 1.6%
  DNA content (%) Sub-G0/G1: 21.8 ± 4.7 %
HCT116 cells [2]; 48 h incubation, 2 µM
  DNA content (%) G0/G1: 31.8 ± 2.3 %
  DNA content (%) G2/M: 21.2 ± 2.8%
  DNA content (%) S: 9.3 ± 1.7%
  DNA content (%) Sub-G0/G1: 28.9 ± 4.7 %
HCT116 cells [2]; 48 h incubation, 4 µM
  DNA content (%) G0/G1: 15.1 ± 0.9 %
  DNA content (%) G2/M: 17.1 ± 2.2%
  DNA content (%) S: 6.9 ± 1.3%
  DNA content (%) Sub-G0/G1: 55.3 ± 2.7 %
HCT116 cells [3]; 1 μM, 24 h
  Reduction of the number of viable cells: 40.0%
HCT116 cells [3]; 1 μM, 48 h
  Reduction of the number of viable cells: 72.4%
HCT116 cells [3]; 2 μM, 24 h
  Reduction of the number of viable cells: 60.0%
HCT116 cells [3]; 2 μM, 48 h
  Reduction of the number of viable cells: 81.7%
HCT116 cells [3]; 4 μM, 24 h
  Reduction of the number of viable cells: 76.1%
HCT116 cells [3]; 4 μM, 48 h
  Reduction of the number of viable cells: 90.2%
HCT116 cells [3]; 24 and 48 h
  Number of non-viable cells: No significant (p > 0.05) increase
[4]; SI = IC50[MRC-5]/IC50[HepG2]
  Selectivity index (SI): 3.4
[4]; SI = IC50[PBMC]/IC50[HepG2]
  Selectivity index (SI): 2.1
[4]; read-out: IC50 in µM, HepG2, alamar blue assay, 72 h incubation, 2D culture
  IC50: 2.8 µM
[5]; HCT116, IC50 compared with 5-FU
  more potent than 5-FU (fold): 3 fold
[5]; SI = IC50[MRC-5]/IC50[HCT116]
  Selectivity index (SI): 6.3
[5]; SI = IC50[PBMC]/IC50[HCT116]
  Selectivity index (SI): 3.8
[5]; read-out: IC50 in µM, HCT116, alamar blue assay, 72 h incubation, 2D culture
  IC50: 1.5 µM
HCT116 cells [6]
  Mitochondrial membrane potential (depolarization): induced mitochondrial depolarization
[7]; HSC3, IC50 compared with 5-FU
  more potent than 5-FU (fold): 10 fold
[7]; SI = IC50[MRC-5]/IC50[HSC-3]
  Selectivity index (SI): 5.6
[7]; SI = IC50[PBMC]/IC50[HSC-3]
  Selectivity index (SI): 3.4
[7]; read-out: IC50 in µM, HSC3, alamar blue assay, 72 h incubation, 2D culture
  IC50: 1.7 µM
[8]
  Caspase-3 activation: significant increase
HCT116 cells [9]; HCT116, 1 h 5 mM NAC, then 4 µM complex for 48 h, data not shown
  Apoptotic cells after pre-treatment with antioxidant NAC: did not prevent the increase of apoptotic cells
HCT116 cells [9]; HCT116, 2 h 50 µM Z-DEVD-FMK, then 4 μM RU/5-FU for 48 h
  Apoptotic cells after pre-incubation with caspase-3 inhibitor Z-DEVD-FMK: prevented the increase of apoptotic cells
HCT116 cells [9]; HCT116, annexin V-FITC/PI
  Necrotic cells: No significant increase
HCT116 cells [9]; HCT116, annexin V-FITC/PI, 24 and 48 h, 5-FU at 4 μM
  Early and late apoptotic cells: increasing in early and late apoptotic cells
[10]; K562, IC50 compared with 5-FU
  more potent than 5-FU (fold): 10 fold
[10]; SI = IC50[MRC-5]/IC50[K-562]
  Selectivity index (SI): 4.8
[10]; SI = IC50[PBMC]/IC50[K-562]
  Selectivity index (SI): 2.9
[10]; read-out: IC50 in µM, K562, alamar blue assay, 72 h incubation, 2D culture
  IC50: 2 µM
[11]; MCF7, IC50 compared with 5-FU
  more potent than 5-FU (fold): 2 fold
[11]; SI = IC50[MRC-5]/IC50[MCF7]
  Selectivity index (SI): 1.3
[11]; SI = IC50[PBMC]/IC50[MCF7]
  Selectivity index (SI): 0.8
[11]; read-out: IC50 in µM, MCF7, alamar blue assay, 72 h incubation, 2D culture
  IC50: 7.6 µM
B16-F10 (mouse melanoma); B16-F10, IC50 compared with 5-FU
  more potent than 5-FU (fold): 2 fold
B16-F10 (mouse melanoma); SI = IC50[MRC-5]/IC50[B16-F10]
  Selectivity index (SI): 4.5
B16-F10 (mouse melanoma); SI = IC50[PBMC]/IC50[B16-F10]
  Selectivity index (SI): 2.7
B16-F10 (mouse melanoma); read-out: IC50 in µM, B16-F10, alamar blue assay, 72 h incubation, 2D culture
  IC50: 2.1 µM
[12]; SCC9, IC50 compared with 5-FU
  more potent than 5-FU (fold): 55 fold
[12]; SI = IC50[MRC-5]/IC50[SCC-9]
  Selectivity index (SI): 4.1
[12]; SI = IC50[PBMC]/IC50[SCC-9]
  Selectivity index (SI): 2.5
[12]; read-out: IC50 in µM, SCC9, alamar blue assay, 72 h incubation, 2D culture
  IC50: 2.3 µM
HCT116 cells [13]
  Intracellular ROS levels: did not induce significant increase

Like-named read-outs stand apart in the source and are kept apart here.
